Assay results: the antibiotic and cytotoxicity screens of Wong et al. (2023)
Some of the results follow.

Tested on: HSkMC (human skeletal muscle cells)
Assay: cytotoxicity call (relative viability < 0.9)
Settings: 10 µM

| SMILES | cytotoxicity call |
| --- | --- |
| O=S1(=O)N[C@H](c2ccccc2)CO1 | inactive |
| C[C@@H]1CCCCO[C@H](CN(C)Cc2ccc3c(c2)OCO3)[C@H](C)CN([C@H](C)CO)C(=O)c2cc(NC(=O)Nc3cccc4ccccc34)ccc2O1 | active |
| C[C@@H]1CCCCO[C@@H](CN(C)S(=O)(=O)c2ccc(F)cc2)[C@H](C)CN([C@@H](C)CO)C(=O)c2cc(NC(=O)Cc3ccccc3)ccc2O1 | inactive |
| CC(C)c1nc(CN(C)C(=O)N[C@@H](CCN2CCOCC2)C(=O)N[C@H](CC[C@H](Cc2ccccc2)NC(=O)OCc2cncs2)Cc2ccccc2)cs1 | inactive |
| O=c1nc2[nH][nH]cc-2c(=O)[nH]1 | inactive |
| COc1ccc(NC(=O)N(C)C[C@@H]2OCCCC[C@@H](C)Oc3ccc(NS(=O)(=O)c4ccc(C)cc4)cc3C(=O)N([C@H](C)CO)C[C@H]2C)cc1 | inactive |
| CC(=O)N(C)C[C@H]1Oc2cc(C#CCN(C)C)ccc2S(=O)(=O)N([C@@H](C)CO)C[C@@H]1C | inactive |
| CCS(=O)(=O)N1C[C@]2(CCN(CC2)Cc2cccc(c2)OC)c2c([nH]c3cc(ccc23)OC)[C@@H]1CO | inactive |
| C[C@H]1CN([C@@H](C)CO)C(=O)c2cc(C3=CCCC3)cnc2O[C@@H]1CN(C)C(=O)Nc1ccc(C(F)(F)F)cc1 | inactive |
| C[C@H](CO)N1C[C@H](C)[C@H](CN(C)Cc2ccccc2)Oc2c(NC(=O)Nc3ccc(C(F)(F)F)cc3)cccc2C1=O | inactive |
| Nc1cccc(OCc2ccccc2)c1 | inactive |
| COC(=O)[C@@H](N)Cc1ccc(O)c(O)c1 | inactive |
| NC(=O)NCC#Cc1ccc2c(c1)[C@]1(C(=O)N2)[C@H](c2ccc(OCCO)cc2)N2[C@H](c3ccccc3)[C@H](c3ccccc3)OC(=O)[C@H]2[C@@H]1C(=O)N1CCCCCCC1 | inactive |
| CC(C)CC#Cc1ccc2c(c1)O[C@H](CN(C)Cc1cncnc1)[C@H](C)CN([C@@H](C)CO)S2(=O)=O | inactive |
| C[C@@H]1CN([C@H](C)CO)C(=O)c2c(c3ccccc3n2C)-c2ccccc2CO[C@@H]1CN(C)Cc1cccc2c1OCCCO2 | inactive |
| C[C@@H]1CN([C@@H](C)CO)C(=O)c2cc(NC(=O)CCCN(C)C)ccc2O[C@@H](C)CCCCO[C@H]1CN(C)Cc1ccc(C(F)(F)F)cc1 | inactive |
| C[C@H]1CN([C@@H](C)CO)C(=O)c2cc(NS(=O)(=O)c3cn(C)cn3)ccc2O[C@@H]1CN(C)CC1CCCCC1 | inactive |
| COc1ccc(Oc2cc(NCCC(F)(F)F)c3ncc(-c4ccc(C(=O)NC5CC5)c(C)c4)n3n2)c(F)c1F | active |
| C[C@@H]1CN([C@H](C)CO)C(=O)c2cc(Br)cnc2O[C@H]1CN(C)C(=O)Nc1ccccc1F | inactive |
| COc1ccc(S(=O)(=O)Nc2cccc3c2O[C@H](CN(C)Cc2ccc(Oc4ccccc4)cc2)[C@@H](C)CN([C@@H](C)CO)C3=O)cc1 | inactive |

| SMILES | cytotoxicity call |
| --- | --- |
| C[C@H]1CN([C@@H](C)CO)C(=O)c2cc(NC(=O)CCC(F)(F)F)ccc2O[C@@H]1CN(C)Cc1ccc(C(=O)Nc2ccccc2N)cc1 | inactive |
| C[C@@H]1CN([C@@H](C)CO)C(=O)c2cc(NC(=O)CCCN(C)C)ccc2O[C@@H]1CN(C)S(=O)(=O)c1ccc(F)cc1 | inactive |
| NC(=O)c1ccc[n+](CC(=O)N2CCCCC2)c1 | inactive |
| C[C@@H]1CN([C@H](C)CO)C(=O)c2cc(NC(=O)c3ccncc3)ccc2O[C@@H](C)CCCCO[C@H]1CN(C)C(=O)Nc1cccc2ccccc12 | active |
| C[C@@H]1CCCCO[C@@H](CN(C)C(=O)NC2CCCCC2)[C@H](C)CN([C@@H](C)CO)C(=O)c2cc(NC(=O)Nc3cccc4ccccc34)ccc2O1 | inactive |
| Cc1noc(C)c1S(=O)(=O)N(C)C[C@@H]1Oc2ccc(NS(=O)(=O)c3cn(C)cn3)cc2CC(=O)N([C@H](C)CO)C[C@@H]1C | inactive |
| COc1ccc(S(=O)(=O)N(C)C[C@@H]2OCCCC[C@H](C)Oc3ccc(NC(=O)Nc4ccccc4)cc3C(=O)N([C@H](C)CO)C[C@@H]2C)cc1 | inactive |
| Cc1ccc(S(=O)(=O)Nc2ccc3c(c2)C(=O)N([C@H](C)CO)C[C@@H](C)[C@H](CN(C)C(=O)Nc2ccccc2)OCCCC[C@@H](C)O3)cc1 | inactive |
| CCCN(C)C[C@H]1OCCCC[C@@H](C)Oc2ccc(NC(=O)Nc3c(C)noc3C)cc2C(=O)N([C@H](C)CO)C[C@@H]1C | inactive |
| C[C@@H]1CN([C@@H](C)CO)C(=O)Cc2cc(NC(=O)NC3CCCCC3)ccc2O[C@H]1CN(C)Cc1ccc(Oc2ccccc2)cc1 | inactive |
| C[C@@H]1CN([C@@H](C)CO)C(=O)c2cccc(NS(=O)(=O)c3ccccc3)c2O[C@H]1CN(C)S(=O)(=O)c1cccs1 | inactive |
| COc1ccc(CN(C)C[C@H]2OCCCC[C@@H](C)Oc3ccc(NC(=O)Nc4cccc5ccccc45)cc3C(=O)N([C@H](C)CO)C[C@H]2C)cc1 | inactive |
| CC(=O)N[C@@H](Cc1ccccc1)C(=O)O | inactive |
| CCS(=O)(=O)NCC[C@@H]1CC[C@H](NC(=O)Cc2ccccn2)[C@@H](CO)O1 | inactive |
| Cc1ccc(S(=O)(=O)Nc2cccc3c2O[C@@H](CN(C)S(=O)(=O)c2ccc(F)cc2)[C@@H](C)CN([C@H](C)CO)C3=O)cc1 | inactive |
| C[C@@H]1CN([C@H](C)CO)C(=O)Cc2cc(NC(=O)c3ccncc3)ccc2O[C@@H]1CN(C)Cc1ccc2c(c1)OCO2 | inactive |
| O=C(C[C@H]1CC[C@@H]2[C@H](COC[C@H](O)CN2S(=O)(=O)c2cccc(F)c2)O1)NCc1ccncn1 | inactive |
| Cc1noc(C)c1S(=O)(=O)N(C)C[C@@H]1Oc2ccc(NC(=O)Cc3ccccc3)cc2CC(=O)N([C@@H](C)CO)C[C@H]1C | inactive |
| C[C@@H]1CN([C@H](C)CO)C(=O)c2cc(NC(=O)C3CCCCC3)ccc2O[C@@H](C)CCCCO[C@H]1CN(C)S(=O)(=O)c1ccc(Cl)cc1 | inactive |
| C[C@@H]1CN([C@H](C)CO)C(=O)c2cccc(NC(=O)Nc3ccccc3)c2O[C@@H]1CN(C)Cc1ccc(C(=O)Nc2ccccc2N)cc1 | inactive |
